The source gives no read counts; variants with many changes may rest on few reads.
B1: LINE1-mini (parent)
chain: GGCAGAGCUCAACACAGCGUGGCAAAGUGGCUGUGGCUAGACUGCC

Variants of: B1
Assay: self-cleavage, relative activity (ratio to wild type); higher = more cleavage; in vitro, sequencing; the parent is a self-cleaving ribozyme

Variant	self-cleavage
GGCAGAGCUCAAUUCAGCGUGGCAAAGUGGCAGUGGUUAGACUGCC [C13U A14U U32A C37U]	0.09
GGCAGAGCUCAACACAACGUGGCCAAGUGGCGGUGGCUAGACUGCC [G17A A24C U32G]	0.02
GCCAGAGCACAACACAGCGUGGCAAAGUCGCUGUGGAUGGACUGCC [G2C U9A G29C C37A A39G]	0
GGCAGAGCUCAACACAGCUUGGCAAAGUGCCUGUAGCUAGACUGCC [G19U G30C G35A]	0.04
GGCAGAGCUCAACACAGCGUGGCAAACUGGCUGUGACAAGACUACG [G27C G36A U38A G44A C46G]	0.04
AGUAGACCUCAACACACCGUGGCAAAGUGGCUGUGGCUAGACUGCC [G1A C3U G7C G17C]	0.46
GGCAGAGCUCAAGACAGCGUGGCAAAAUGGCUGUGGCUAGACUUCC [C13G G27A G44U]	0.08
GGCAGAGCUCAACACAGGUUGGCAGAGUGGCUGUGGCUAGAAUGCC [C18G G19U A25G C42A]	0.05
GGCAGAGCUCAACACAGCGGGGCAAAGGAGCUGUGGCUAGACUGCC [U20G U28G G29A]	0.46
GGCAGAGCGCAACACAGCGUUGCAACGUGGCUGUGGCUAGACUGCC [U9G G21U A26C]	0.05
GGCAGAGCUCUACAAAGCUUGGCAAAGUGGCUGUGGCUAGACUGCC [A11U C15A G19U]	0.07
GGCCGAGCUCAACAUAGCGUGGCAAAUUGGCUGUGGCUAGACUGCC [A4C C15U G27U]	0.21
GGCUGAGCCCAACACAGCAGGGCAAAGUGGCGGAGACUAAACUGCC [A4U U9C G19A U20G U32G U34A G36A G40A]	0
GGCAGAGCUCUAUACAGCGUGGCAAAGUGGCAGUGGCUAGACUGCC [A11U C13U U32A]	0.07
GGCAGAGUUUAACACAGCGUGUCAAAGUGGCUGUGGCUAGACUGCC [C8U C10U G22U]	0.05
GGCAGAGACCAACACAGCGGGCCAAAGUGGCUGUGCCUAGACUGCC [C8A U9C U20G G22C G36C]	0.07
GGCAGCGCUCAACACAGCGCGGCAAAGUGGCUGUGGCUAGACUACC [A6C U20C G44A]	0.05
GGCAGGGCUCAUCACAGCGUGGCAAAGUGGCUGUGGCUAAACUGCC [A6G A12U G40A]	0.07
GGCUGAGCCCAACACAGCGUGGCAAAGUGGCUGUGGCUAGCCUGCC [A4U U9C A41C]	0.04

Variant	self-cleavage
GGCAGAGCUCAAGAGAGCGUUGCAAAGUGGCUGUCCCUAGACUGCC [C13G C15G G21U G35C G36C]	0.01
UGCAGAGCUCAACACAGCGUGGCAAAGUGCCUAUGGCUAGACUGCC [G1U G30C G33A]	0
GGCUGAGAUCAACACAGCGUGGCAACGUGGCUGUGGCUAGAGAGCC [A4U C8A A26C C42G U43A]	0.06
AGCAGAGCAAACCACAGCGUGGCAAAGUGGCUGUGGCUAGACUGCC [G1A U9A C10A A12C]	0.03
GGCCGAGCUCAACACAGCGUGACAAAGUGGCUGUGGCUAGACUUCC [A4C G22A G44U]	0.03
GGCAGAGCGCAAAACAGCGUGGCACAGUGGCUGUGACUAGACUGCC [U9G C13A A25C G36A]	0.46
GACAGAGCUCAACACGGCGUCGCAAAGUGGAUGUGGCUAGACUGCC [G2A A16G G21C C31A]	0.12
GCCAGAGCUCAACACAGCGUGGCAAAGUGGCUGUGGCGGGACUGCC [G2C U38G A39G]	0.02
GGCAGCGAUCAACACAACGUGGAAAAAUGACGGUGGCUAGACUGAC [A6C C8A G17A C23A G27A G30A U32G C45A]	0.03
AGCAGAGCUCAACUCAGCGUGGCAAUGUGGCUGUGGCUAGACUGCC [G1A A14U A26U]	0.72
GGCAGACCUCAGCACAGCGUGGCAAAGUGGCCGUGGCUAGACUUCC [G7C A12G U32C G44U]	0.05
GGCAGAGCUCAACACAGCGUGACAAAGUGGCUAUGGCUAGCCUUCC [G22A G33A A41C G44U]	0.02
GGCAGAGCUCAACAUAGCGUGGCAAAGUGGCUAUGGUAAGACUGCC [C15U G33A C37U U38A]	0.04
GGCAGAGCUCAACACCGCGUGGCACACAGGCUGUGGCUAGACUGCC [A16C A25C G27C U28A]	0.07
CGCAGAACUCAAAACAGCGUGGCAAAGUGGCUGUGGCUAGACUGCC [G1C G7A C13A]	0.02
CGCAGAGCUCAACACAGCGUUGCAAAGUGGGUGUGGCUAGACUGCC [G1C G21U C31G]	0.02
GGCAGAGCUCAACACAGCGUGGCAAAGUCGCUGAGGCGUGACUGCC [G29C U34A U38G A39U]	0.17
GCCAGAGCUCAACACAGCGUGGCAAAGUGGCUCCGGCUAGACUUCC [G2C G33C U34C G44U]	0.02
GGCAGAGCUCAACACAGCGUGGGAAAGUGGCUGAGGCUAGACGGCC [C23G U34A U43G]	0

Variant	self-cleavage
GGCAGAACUCAACACAGCGUGGCCAAGUGGCUCUGGCUAGACUGCC [G7A A24C G33C]	0.05
GGCAGAGCUCAACCCACCGUGGCAAAGUGGCUGUGGCUAGACAGCC [A14C G17C U43A]	0.1
GGCAGAGUUCAACACACUUUGGCAAAGUGGCUCUGGCUAGAGUGCC [C8U G17C C18U G19U G33C C42G]	0.01
GGCAGAGCUCAACACAGCCUGGCAAAGUGGCGGUGGCUAGGCUGCC [G19C U32G A41G]	0.05
GGCAUAGCUUAACACAGAGUGACAAAGUGGCUGUGGCUAGACUGCC [G5U C10U C18A G22A]	0.76
GGCAGAGCUCAACACGGCGUGGCAAAGUGGCUGUAGCCAGAAUGCC [A16G G35A U38C C42A]	0.21
GGAACAGCUCAACACAGCGUGUCAAUGUGGUUGUGGCUAGACUGCC [C3A G5C G22U A26U C31U]	0.02
GGCGGAGCUCAACCCUCCGUGGCAAAGUGGCCGUGGCUAGACUGCC [A4G A14C A16U G17C U32C]	0.02
GGCAGAGCUCAACACAGCGUCGCAUAGUGCCUGUGGCUGGACUGCC [G21C A25U G30C A39G]	0.06
GUCAGAGCUCAACACAGCGUGGCAAAGUGUCUGUAGCUAGACUGCC [G2U G30U G35A]	0.12
GGCAGAGCUCAAAACACCGUGGCAAGGUGGCUGUGGCUCGACUGCC [C13A G17C A26G A39C]	0.01
UUCAGAGCUCGACACAGCAUGUCAAAGUGGCUGUGGCUAGACUGCC [G1U G2U A11G G19A G22U]	0.01
GGCGGAGCUCAACAUAGCGUUGCAAAGUGGCUGUGGCUAGACUGCC [A4G C15U G21U]	0.47
GGCAGAGCUAAACACAGCGUGGCCAAGGGGCUGUGUAUAGACUGCC [C10A A24C U28G G36U C37A]	0
GGCAGAGCUCAACACAGAAUGGCAAAGUGGCUGUGGCUAGACUCCC [C18A G19A G44C]	0.39
GUCAGAGCUCAACUCAGCGUGGCAAAGUGGCUGGGGCUAGACUGCC [G2U A14U U34G]	0.03
GGCAGAGCUCCACACAGCGUGUCACAGUGGCUGUCGAUAGACUGCC [A11C G22U A25C G35C C37A]	0.02
GGCAGAUCUCAACAUAGCGUGGGAAAGUGGCUGUGGCUAGACUGCC [G7U C15U C23G]	0.06
